Laboratory results from PubChem BioAssay (NCATS).
The list shows a part of the results. Shown are side measurements of this screen, not its main read-out; they come without a call. The list favours compounds with an active or inconclusive main result. The note in brackets gives the kind of curve behind each potency; many fits are weak.

Experiment: qHTS Assay for Lipid Storage Modulators (AID 1519)
Conditions: Drosophila S3 cells, BODIPY lipid droplet/cell ratio, laser cytometry, cells loaded with oleic acid
In short: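 Cells seeded at 5,000 per well were treated with compounds over a concentration series and loaded with oleic acid (400 uM, as added). Lipid droplet fluorescence (488 nm excitation, 500-530 nm channel) was read by laser-scanning cytometry and normalized to 20 uM Triacsin C.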

[1] = measured here: cell count channel max response
[2] = measured here: lipid channel max response
[3] = measured here: lipid (BODIPY) channel AC50
[4] = measured here: cell number channel AC50
Tags give direction and shape of the fitted curve.

| SMILES | max response [1] | max response [2] | AC50 [3] | AC50 [4] |
| --- | --- | --- | --- | --- |
| CN1CC[C@@H]2CN3CCc4cccc(c43)[C@H]2C1 | 55.6% | 88.3% |  |  |
| CO[C@H]1CC=C2CCN3CCC4=C(CC(=O)OC4)[C@]23C1 | 36.3% | 38.4% |  |  |
| COC(C)C(O)(C(=O)OC1=CCN2CC[C@H](O)[C@H]12)C(C)C (some centres not stated) | -29.2% | -35% | 31.6 µM [falling, partial curve, poor fit] |  |
| COc1c2c(c(CC=C(C)C)c3oc(=O)c(-c4ccc(O)cc4)c(O)c13)OC(C)(C)C=C2 | 28.9% | 39.2% | 39.8 µM [rising, partial curve, poor fit] |  |
| CCCN(C/C=C\I)[C@@H]1CCc2ccc(O)cc2C1 | 33.2% | 37% |  | 5.01 µM [rising, full curve, poor fit] |
| CN1CC[C@@]2(C)c3cc(O)ccc3N(C)[C@@H]12 | 34.2% | 44.3% |  | 35.5 µM [rising, single point] |
| Cc1[nH]c2ccc(O)cc2c1CCN | 43% | 40.9% | 39.8 µM [rising, single point] |  |
| CCC1(C2=NCCN2)Cc2ccccc2O1 (configuration not stated) | 42.6% | 40.8% |  |  |
| O=c1cccc2n1CC1CNCC2C1 (configuration not stated) | 6.91% | 17.3% | 0.501 µM [rising, full curve, poor fit] |  |
| CC(C)CN1CC[C@@]2(CCCN(C(=O)Oc3ccccc3)C2)C1 | 16.3% | 23.2% | 0.891 µM [rising, full curve] |  |
| COC[C@H]1OC(=O)c2coc3c2[C@@]1(C)C1=C(C3=O)[C@H]2CCC(=O)[C@@]2(C)C[C@H]1OC(C)=O | 40.8% | 29% |  | 10 µM [rising, partial curve, poor fit] |
| O=C1C2CCN(CC2)C1(CO)CO | -23.7% | -30% | 0.0251 µM [falling, full curve, poor fit] |  |
| NCC(CC(=O)O)c1ccc(Cl)cc1 (configuration not stated) | -42.7% | -45.2% |  | 44.7 µM [falling, partial curve, poor fit] |
| CC(=O)Nc1cc([As](=O)(O)O)ccc1O | 29.4% | 43.2% | 35.5 µM [rising, single point] |  |
| O=C(Nc1cccc(F)c1)N1CCCC2(CCN(C(=O)Oc3ccccc3)CC2)C1 | 5.53% | 11.7% | 1.58 µM [rising, full curve] |  |
| CC1=C(O)C(=O)[C@H]2O[C@@H]2C1=O | 29.1% | -94.7% |  | 2.82 µM [rising, full curve, poor fit] |
| CN1C2CCC1CC(NC(=O)c1nn(C)c3ccccc13)C2 (configuration not stated) | 40.7% | 40.5% |  | 39.8 µM [rising, single point] |
| COc1ccc(C[C@H]2NC[C@H](O)[C@@H]2OC(C)=O)cc1 | 38.3% | -10.2% |  | 0.126 µM [rising, full curve, poor fit] |
| CC1(C)C(C(Cl)Cl)C2(Cl)C(Cl)C(Cl)C1(Cl)C2(Cl)Cl (configuration not stated) | 29.4% | 48.6% | 22.4 µM [rising, partial curve, poor fit] |  |

| SMILES | max response [1] | max response [2] | AC50 [3] | AC50 [4] |
| --- | --- | --- | --- | --- |
| CCCN1CCCC2Cc3[nH]ncc3CC21 (configuration not stated) | 33.4% | 33.2% |  |  |
| CC(=O)OC1C2CCC3C1(CC(O)[C@@]1(O)[C@@H](CC(O)C1(C)C)[C@]3(C)O)C[C@@]2(C)O (some centres not stated) | 18.4% | 31.7% | 35.5 µM [rising, single point] |  |
| COc1ccc(C[C@@H]2NC[C@H](O)[C@@H]2OC(C)=O)cc1 | -24.9% | -58.5% | 1 µM [falling, full curve] |  |
| O[N+]1=CC=CCC1=S.On1ccccc1=S.[Zn] | -8.58% | -60.4% | 2.51 µM [falling, full curve, poor fit] |  |
| CNC(C)C1CC[C@H](N)[C@@H](OC2C(N)C[C@H](N)[C@@H](OC3OC[C@](C)(O)C(NC)[C@H]3O)C2O)O1 (some centres not stated) | 25.7% | 39.1% | 39.8 µM [rising, single point] |  |
| C[C@@]12C=CC(=O)C=C1CCC1C2CC[C@]2(C)C(=O)CCC12 (some centres not stated) | 24.1% | 33.6% | 0.224 µM [rising, full curve] |  |
| O=C(c1ccco1)N1CCC2(CC1)CN(Cc1ccncc1)C2 | 19.7% | 32.6% | 5.01 µM [rising, partial curve, poor fit] |  |
| OCC1OC(n2cnc3cc(Cl)c(Cl)cc32)C(O)C1O (configuration not stated) | -5.73% | -0.897% | 3.98 µM [rising, partial curve] |  |
| C/C(=C\C=C/[C@@H](C)C(=O)O)[C@H]1CN[C@H](C(=O)O)[C@@H]1CC(=O)O | 28.8% | 34.6% | 15.8 µM [rising, single point] |  |
| N[C@H](CCP(=O)(O)O)C(=O)O | -9.38% | -9.43% | 12.6 µM [rising, single point] |  |
| N#Cc1cccc(NC(=O)N2CC[C@@]3(CCCN(C(=O)Oc4ccccc4)C3)C2)c1 | 29.3% | 39.1% | 0.891 µM [rising, partial curve, poor fit] |  |
| Oc1ccc2c3c1O[C@H]1c4oc5ccccc5c4C[C@]4(O)[C@H](C2)N(CC2CC2)CC[C@@]314 | 26.7% | 38.8% | 0.316 µM [rising, full curve, poor fit] |  |
| C[C@H]1OC[C@@H](C[N+](C)(C)C)O1 | 35% | 31.9% |  |  |
| C=CC1CN2CCC1CC2C(O)c1ccnc2ccccc12 (configuration not stated) | 20.9% | 32.3% | 25.1 µM [rising, partial curve] |  |
| O=C(Oc1ccccc1)N1CCC[C@@]2(CCN(C(c3ccccc3)c3ccccc3)C2)C1 | 23% | 33.2% | 0.0708 µM [rising, full curve, poor fit] |  |
| c1csc(CN2CCCC3(CCNCC3)C2)n1 | 22.5% | 31.1% | 1.26 µM [rising, partial curve] |  |
| NCCc1c[nH]c2ccc(C(N)=O)cc12 | 63.9% | 66.6% |  |  |
| CC(C)CCCC1(C)C=Cc2c(O)c3c(c(CCC(C)C)c2O1)OC12C(CC4CC1C(C)(C)OC2(CCC(C)C(=O)O)C4O)C3=O (configuration not stated) | -7.14% | -60.7% | 22.4 µM [falling, single point] |  |
| C=CCN1CC[C@]23c4c5ccc(O)c4OC2C(=O)CC[C@]3(O)C1C5 (some centres not stated) | 19% | 31.9% | 7.08 µM [rising, partial curve, poor fit] |  |

| SMILES | max response [1] | max response [2] | AC50 [3] | AC50 [4] |
| --- | --- | --- | --- | --- |
| COc1cc2occc2c2oc(=O)ccc12 | 26.5% | 41.3% | 4.47 µM [rising, full curve] |  |
| COc1cc2c(cc1OC)C(C)NCC2 (configuration not stated) | -17.4% | -22.7% |  | 20 µM [rising, single point] |
| CCC(C)C(=O)OC1C[C@@]2(C)C(c3ccoc3)OC(=O)CC23OC2(C)OC34C(OC(=O)C(C)C)[C@]3(O)C(OC(=O)C5(C)OC5C)[C@]5(C)CC3(O)[C@](C)(C5CC(=O)OC)C14O2 (some centres not stated) | -1.99% | -32.8% | 15.8 µM [falling, single point] |  |
| N#Cc1cccc(NC(=O)N2CCCC3(CCN(C(=O)Oc4ccccc4)CC3)C2)c1 | 11.9% | 27.8% | 0.447 µM [rising, full curve, poor fit] |  |
| O=C(Oc1ccccc1)N1CCC2(CCN(Cc3nccs3)CC2)CC1 | 25.5% | 33.2% | 1.26 µM [rising, full curve, poor fit] |  |
| C[N+](C)(C)CC(=O)O | 53.6% | 53.8% |  | 39.8 µM [rising, single point] |
| O=C(Nc1ccccc1)N1CCC2(CC1)CCN(C(=O)Oc1ccccc1)CC2 | 5.09% | 18.4% | 0.0355 µM [rising, full curve, poor fit] |  |
| CCC1C2CC3C4N(C)c5ccccc5[C@]45CC(C2C5O)N3C1O (some centres not stated) | 28.9% | 44.5% | 28.2 µM [rising, single point] |  |
| CC1CC(Cl)CCC1C(=O)OC(C)(C)C (configuration not stated) | 25.2% | 31.3% | 25.1 µM [rising, partial curve, poor fit] |  |
| CC(=O)OCC1=C(C(=O)O)N2C(=O)C(NC(=O)CCCC(N)C(=O)O)C2SC1 (configuration not stated) | 18.9% | 31.8% | 39.8 µM [rising, single point] |  |
| CC1CC[C@@]2(NC1)OC1CC3C4CC[C@@H]5CC(O)CC[C@@]5(C)C4CC[C@]3(C)C1C2C (some centres not stated) | 17.9% | 31.8% | 39.8 µM [rising, single point] |  |
| CCCCCCC[n+]1ccc(-c2cc[n+](CCCCCCC)cc2)cc1 | -22.8% | -49.9% | 44.7 µM [falling, single point] |  |
| C[C@H]1O[C@H](O[C@H]2[C@H](O)[C@@H](O)[C@@H](O)[C@H](O)[C@@H]2O)[C@@H](N)C[C@@H]1NC(=N)C(=O)O | 27.5% | 43.4% | 39.8 µM [rising, partial curve] |  |
| CC(=O)N1CCN(c2ccc(OCC3CO[C@@](Cn4ccnc4)(c4ccc(Cl)cc4Cl)O3)cc2)CC1 (some centres not stated) | -63.4% | -81.1% |  | 15.8 µM [falling, partial curve] |
| COC(=O)[C@]1(C)CC[C@@]2(C)CC[C@@]3(C)C4=CCc5c(cc(O)c(O)c5C)[C@]4(C)CC[C@@]3(C)C2C1 (some centres not stated) | -81.3% | -103% |  | 28.2 µM [falling, single point] |
| CCCN1CCC[C@@H](c2cccc(C#N)c2)C1 | 17.7% | 18% |  | 15.8 µM [falling, single point] |
| CCOC(OCC)P(=O)(O)CCCN | -24% | -24.3% |  | 0.178 µM [falling, full curve, poor fit] |
| O=C(Oc1ccccc1)N1CCC[C@@]2(CCN(Cc3cc(C(F)(F)F)cc(C(F)(F)F)c3)C2)C1 | 19.1% | 32.6% | 0.141 µM [rising, full curve, poor fit] |  |
